# Results: publication PMC4336329 (PLoS ONE, 2015)
# The campaign covered roughly 310,000 compounds. About 14,000 (4.5%) showed an effect of 50% or more. Effects have a minus sign here. The list shows a part of the results.
# Target: human ether-à-go-go-related gene (hERG) potassium channel (human, UniProt Q12809)
# Experiment: primary screen, population patch clamp on CHO cells stably expressing hERG
# 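Also: peak tail current of the secondary pulse compared with the same well before compound.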
# human ether-à-go-go-related gene (hERG) potassium channel, sequence (Q12809 whole entry, looked up): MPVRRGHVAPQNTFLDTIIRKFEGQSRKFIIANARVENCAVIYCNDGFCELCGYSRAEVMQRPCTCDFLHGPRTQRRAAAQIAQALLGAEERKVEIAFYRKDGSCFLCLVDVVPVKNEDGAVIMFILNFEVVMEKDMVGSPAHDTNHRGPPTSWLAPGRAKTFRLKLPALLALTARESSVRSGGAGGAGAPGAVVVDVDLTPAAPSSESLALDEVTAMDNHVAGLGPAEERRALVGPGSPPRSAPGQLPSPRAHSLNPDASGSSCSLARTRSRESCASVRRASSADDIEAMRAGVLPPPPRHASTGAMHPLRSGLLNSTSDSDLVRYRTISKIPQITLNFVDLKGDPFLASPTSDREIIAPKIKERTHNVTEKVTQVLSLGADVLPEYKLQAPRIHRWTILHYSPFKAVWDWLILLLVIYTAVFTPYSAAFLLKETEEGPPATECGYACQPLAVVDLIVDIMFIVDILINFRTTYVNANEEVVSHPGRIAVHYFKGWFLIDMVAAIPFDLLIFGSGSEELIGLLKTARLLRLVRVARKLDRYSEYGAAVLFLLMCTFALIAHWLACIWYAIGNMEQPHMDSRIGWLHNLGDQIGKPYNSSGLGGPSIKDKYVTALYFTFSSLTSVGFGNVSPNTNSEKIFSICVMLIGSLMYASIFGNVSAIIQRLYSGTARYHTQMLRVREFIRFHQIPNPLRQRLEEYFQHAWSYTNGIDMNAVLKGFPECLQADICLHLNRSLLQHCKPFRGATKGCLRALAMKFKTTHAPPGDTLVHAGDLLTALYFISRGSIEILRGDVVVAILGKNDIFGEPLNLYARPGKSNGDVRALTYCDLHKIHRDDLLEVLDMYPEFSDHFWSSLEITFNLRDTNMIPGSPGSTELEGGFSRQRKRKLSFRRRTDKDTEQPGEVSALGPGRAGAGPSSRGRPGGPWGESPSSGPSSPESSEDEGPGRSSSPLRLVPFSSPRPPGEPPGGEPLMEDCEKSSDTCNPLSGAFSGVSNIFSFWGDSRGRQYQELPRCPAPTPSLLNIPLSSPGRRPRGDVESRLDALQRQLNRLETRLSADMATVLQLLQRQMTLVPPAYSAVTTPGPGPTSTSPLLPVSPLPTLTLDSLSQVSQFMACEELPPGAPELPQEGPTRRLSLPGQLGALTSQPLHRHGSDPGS
row,SMILES,"hERG current change (%, negative = inhibition) at 10uM"
1,COc1ccc(CNS(=O)(=O)c2ccc(-n3cccn3)cc2)cc1,-8.73%
2,COC(=O)c1ccc(C2C(C(=O)c3ccc(C)o3)=C(O)C(=O)N2c2cc(C)on2)cc1 (stereo not drawn),13%
3,Cc1ccc(C)c(NC2=NCCCS2)c1,1.48%
4,O=C(O)C1=C[C@@H](c2coc3ccccc3c2=O)C[C@@H](OCc2ccc(CO)cc2)O1,2.87%
5,Cc1nc(C2CCCCC2)c(-c2ccccc2)c(N2CCOC2=O)c1C,-6.45%
6,O=C(Nc1ccc2c(c1)OCO2)C1CCN(C(=O)c2ccc(Cl)cc2)CC1,-73.5%
7,COc1cc2c(cc1OC)C(c1ccc(-c3cc(Cl)ccc3Cl)o1)=NCC2,-3.48%
8,O=C(NC1CCCCC1)C(c1ccccc1)N1CCc2ccccc21 (stereo not drawn),-24.1%
9,COc1cccc(CNC(=O)C(Cc2ccccc2)n2cccc2)c1 (stereo not drawn),-7.59%
10,O=C(CCN1C(=O)/C(=C/c2ccccc2F)SC1=S)Nc1cccnc1,8.07%
11,COc1cc(C(=S)N(C)C)ccc1O,-3.35%
12,O=C(Nc1ccc(SC(F)F)cc1)c1cc(-c2ccncc2)nc2ccccc12,-11%
13,Cc1ccc(S(=O)(=O)N[C@H](C(=O)NCC2CCC(C(=O)O)CC2)C(C)C)cc1 (stereo partly drawn),-3.38%
14,O=C1CC(c2ccco2)CC(O)=C1C=Nc1cc(Cl)ccc1Cl (stereo not drawn),4.03%
15,CCN(C(=O)COC(=O)c1nc(Cl)ccc1Cl)C1CCS(=O)(=O)C1 (stereo not drawn),-2.3%
16,CC(C)Oc1ccc(C2CNC(=O)C2)cc1 (stereo not drawn),15.2%
17,Nc1nc(SCC(=O)Nc2ccc(Cl)cc2)[nH]c(=O)c1-c1ccccc1,19.9%
18,O=C(Nc1ccc2nc(-c3cccs3)[nH]c2c1)c1cccs1,-10.7%
19,COc1ccc(NC(=S)Nc2ccccc2)cc1,17.6%
20,CC(=O)Nc1ccc(-c2ccnc(-c3ccc(NC(C)=O)cc3)n2)cc1,31.8%
21,Cc1cccc(C)c1NC(=O)COC(=O)c1ccccc1[N+](=O)[O-],19.7%
22,CC(C)Nc1nc(Oc2ccc(=O)n(-c3ccccc3)n2)nc(N(C)C)n1,4.33%
23,COc1cc(NC(=O)CN2C(=O)NC(C)(c3ccc(OC(F)F)cc3)C2=O)cc(OC)c1OC (stereo not drawn),-12.9%
24,Br.COc1ccc(-c2csc(CCN3N=C(C)CC3=O)n2)cc1,12.7%
